Data as given in the supplement of paper PMC4166925.
± gives the standard deviation of the averaged measurements. Over roughly 33,000 sequences, “E-score (dimensionless, -0.5 to 0.5)” has its median near -0.046; the highest 2% begin near 0.36. The list shows a part of the results.

These sequences were tested on T1, SpTbr T-box DNA-binding domain (GST fusion) (assay: PBM E-score of 8-mer (E-score (dimensionless, -0.5 to 0.5)); Tbr is Tbrain of the sea star Patiria miniata (Pm) or the sea urchin Strongylocentrotus purpuratus (Sp); higher = stronger binding preference; most listed sequences are background and not binding sites). Details: the construct has about 5 more residues each side.
T1 sequence: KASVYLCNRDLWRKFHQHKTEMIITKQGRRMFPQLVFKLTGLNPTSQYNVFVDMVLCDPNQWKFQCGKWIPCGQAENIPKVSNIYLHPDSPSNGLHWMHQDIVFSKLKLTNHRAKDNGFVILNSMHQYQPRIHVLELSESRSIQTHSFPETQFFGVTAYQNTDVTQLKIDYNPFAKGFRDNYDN
Method: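 Universal protein-binding microarray (Agilent AMADID 016060, 60-bp probes with a 35-bp variable region) incubated with 200 nM GST-fused Strongylocentrotus purpuratus Tbr T-box DNA-binding domain (residues 362-554) in PBS pH 7.5. Scored for every ungapped 8-mer (given with its reverse complement) as E-score (range -0.5 to 0.5; >0.45 counts as bound) and Z-score of median probe intensity. Two replicate arrays (datasets 1 and 2).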
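Also: protein at 200 nM in PBS on universal double-stranded arrays.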

| Sequence | PBM E-score of 8-mer |
| --- | --- |
| AACTCATA | 0.033 ± 0.0023 |
| AGTTATAT | -0.0883 ± 0.031 |
| GTACGAAA | 0.135 ± 0.032 |
| ACTCTAGG | -0.093 ± 0.0039 |
| GAACTATA | -0.192 ± 0.11 |
| GAACATTA | -0.0252 ± 0.005 |
| ATTGCCTG | -0.225 ± 0.039 |
| AGGGCCTG | -0.172 ± 0.0038 |
| CCATCACA | 0.364 ± 0.035 |
| CACGGATG | 0.154 ± 0.011 |
| AACTGATG | 0.102 ± 0.032 |
| AAAGGGTA | -0.055 ± 0.054 |
| AAGCGCCC | -0.00863 ± 0.0021 |
| TCAAATCA | -0.131 ± 0.028 |
| CGAGTCTA | -0.213 ± 0.033 |
| CAAGGGGA | -0.184 ± 0.0056 |
| AAAAACCT | -0.128 ± 0.07 |
| CTGCCCGA | -0.109 ± 0.056 |
| AGTATTAG | 0.00194 ± 0.014 |
| CGGTGACC | 0.0338 ± 0.011 |
| AGCAACCA | -0.0779 ± 0.012 |
| AAATCGGC | -0.171 ± 0.029 |
| ATCAGCCC | -0.252 ± 0.0045 |
| CCATATTC | 0.00652 ± 0.029 |
| CAATGTCC | -0.209 ± 0.016 |

| Sequence | PBM E-score of 8-mer |
| --- | --- |
| ACCTTCGG | -0.00505 ± 0.058 |
| GTGTTTCA | 0.186 ± 0.021 |
| AAAGGAAA | -0.08558 ± 0.00078 |
| ATGTAACA | 0.083 ± 0.054 |
| CTCGGCGA | -0.0214 ± 0.13 |
| GCTATAAC | 0.0717 ± 0.048 |
| AGGAAGGC | -0.0481 ± 0.024 |
| CCCCACCC | 0.104 ± 0.14 |
| CCCTACGC | -0.064 ± 0.012 |
| CTTCAGAA | -0.243 ± 0.094 |
| GCCTGAAC | -0.229 ± 0.023 |
| GGGCCACC | -0.173 ± 0.023 |
| AAATCTAA | -0.0232 ± 0.061 |
| AGTTTTGA | 0.042 ± 0.037 |
| ACTCTAAT | -0.178 ± 0.017 |
| GATCCTCC | 0.0423 ± 0.024 |
| GCAGCAAA | -0.0578 ± 0.11 |
| ACTCCAAC | 0.143 ± 0.058 |
| CGGGGGGC | -0.245 ± 0.062 |
| GGGCCCAA | -0.223 ± 0.0063 |
| CACGTGTC | 0.391 ± 0.014 |
| GGGATTGA | -0.147 ± 0.005 |
| GTGCCAGA | 0.189 ± 0.034 |
| CGGTATAC | -0.00336 ± 0.018 |
| GGTATGCA | -0.0506 ± 0.046 |

| Sequence | PBM E-score of 8-mer |
| --- | --- |
| GCCTCACC | 0.15 ± 0.1 |
| GGCTCGAC | -0.00477 ± 0.004 |
| CAGTATGC | -0.0369 ± 0.0089 |
| AGTGTAAA | 0.338 ± 0.049 |
| TATCTCGA | -0.291 ± 0.061 |
| CGCTTGGA | -0.222 ± 0.05 |
| AGAGGCCT | -0.273 ± 0.023 |
| AAGGTTGC | -0.1197 ± 0.00093 |
| ATCGATGG | -0.0759 ± 0.07 |
| ATCGTAAA | -0.0751 ± 0.0094 |
| GGCGTGTA | 0.127 ± 0.0038 |
| CTGGGTGA | 0.0802 ± 0.0031 |
| GCAACGCA | 0.19 ± 0.071 |
| CGGTGTCC | -0.0339 ± 0.0071 |
| ACTTTTTA | -0.0533 ± 0.027 |
| TGCCCTAA | -0.146 ± 0.066 |
| AAGATAAC | 0.11 ± 0.038 |
| ACGTAGCT | -0.194 ± 0.079 |
| GCAGCGCC | 0.189 ± 0.062 |
| GCATAAAC | 0.00539 ± 0.094 |
| CACTAAGA | 0.138 ± 0.048 |
| CGGGCCAA | -0.0517 ± 0.019 |
| ATCCTGTC | 0.00286 ± 0.012 |
| ATAGCTCA | -0.223 ± 0.088 |
| AACATAGT | -0.154 ± 0.013 |

| Sequence | PBM E-score of 8-mer |
| --- | --- |
| AGCTGATA | 0.00187 ± 0.049 |
| AAAAAGAC | -0.0396 ± 0.011 |
| TCAGACGA | -0.326 ± 0.012 |
| CTAAGTAC | -0.0143 ± 0.042 |
| AAGAGGAC | -0.138 ± 0.061 |
| CACATCAC | 0.2963 ± 0.0014 |
| TCACCCGA | 0.0108 ± 0.15 |
| AAGAGCGG | -0.115 ± 0.056 |
| AGAGCAAT | -0.132 ± 0.0051 |
| CACCTTTC | 0.379 ± 0.024 |
| GACATTGC | 0.0656 ± 0.018 |
| ATATTTAA | -0.252 ± 0.021 |
| ATGGTCCC | -0.265 ± 0.047 |
| CGGTACTC | -0.261 ± 0.013 |
| TACCATCA | 0.0248 ± 0.017 |
| AGGGGACC | -0.295 ± 0.0086 |
| CGCTTTGA | -0.182 ± 0.012 |
| ATAATAAA | -0.227 ± 0.08 |
| AACTCGCG | 0.3 ± 0.0049 |
| CTAATACC | 0.00201 ± 0.056 |
| ATTAGTTG | 0.0607 ± 0.0065 |
| GCCTACTA | -0.0435 ± 0.032 |
| ACTAGTCC | -0.2521 ± 0.00028 |
| GGGTAAGA | -0.299 ± 0.018 |
| GCGCAAGC | 0.0816 ± 0.064 |

| Sequence | PBM E-score of 8-mer |
| --- | --- |
| ACGCTTAA | 0.11 ± 0.0092 |
| ACACCAGC | 0.311 ± 0.019 |
| TAGACTCA | -0.216 ± 0.027 |
| ACTCGGTC | -0.181 ± 0.035 |
| CACAGCAA | 0.0267 ± 0.063 |
| ACTGCTAT | -0.0695 ± 0.034 |
| CGACGTAA | -0.0799 ± 0.063 |
| GTCCCCGA | -0.132 ± 0.0025 |
| CGACTCAA | -0.0279 ± 0.041 |
| ACCGGTAT | -0.0861 ± 0.0031 |
| CGGTAAAC | -0.0651 ± 0.0042 |
| AAGGTGGA | -0.0733 ± 0.085 |
| AATGGCGC | 0.105 ± 0.017 |
| ATCCTGAA | -0.0378 ± 0.016 |
| AGACATCG | -0.308 ± 0.038 |
| CGATTACA | 0.131 ± 0.02 |
| ATGCCAAA | -0.0506 ± 0.0037 |
| GAAGACAC | 0.321 ± 0.033 |
| CCGATGGA | -0.155 ± 0.037 |
| CGTTTAAA | -0.333 ± 0.038 |
| CAGTTTAC | 0.0492 |
| AGTTTAGC | -0.0805 ± 0.036 |
| AATGCACG | -0.0753 ± 0.053 |
| GACCTCGC | 0.0532 ± 0.0042 |
| AAGTCACG | 0.2102 ± 0.0021 |

| Sequence | PBM E-score of 8-mer |
| --- | --- |
| ATAATCCC | -0.178 ± 0.052 |
| CAAAATCC | -0.108 ± 0.019 |
| ATAACCAA | -0.172 ± 0.0045 |
| AGCCACAA | 0.0237 ± 0.048 |
| TCTAAGCA | 0.0691 ± 0.04 |
| AATAGTGG | 0.0885 ± 0.06 |
| AAAAATCT | -0.0505 ± 0.023 |
| GCAACCGA | 0.156 ± 0.039 |
| GGATGTGA | 0.195 ± 0.053 |
| CGGTCGGC | -0.107 ± 0.12 |
| AGAGTTAA | 0.138 ± 0.062 |
| GAACCCGC | -0.0688 ± 0.024 |
| AACGAGGA | -0.0678 ± 0.025 |
| GGAATTCC | -0.158 ± 0.041 |
| CGAAGTTC | -0.0813 ± 0.075 |
| AACTTGCC | 0.13 ± 0.052 |
| AACCCGTG | 0.204 ± 0.009 |
| GAACTCGA | 0.194 ± 0.051 |
| CACCAATG | 0.179 ± 0.0061 |
| AGAAAAGA | 0.126 ± 0.029 |
| AGAGTCGG | -0.0747 ± 0.009 |
| TCTACGCA | -0.0189 ± 0.067 |
| GGTCTTTA | -0.125 ± 0.031 |
| ATGCGAAC | 0.154 ± 0.017 |
| ATCGTTAG | -0.0351 ± 0.02 |

| Sequence | PBM E-score of 8-mer |
| --- | --- |
| AATCGAGA | -0.0925 ± 0.025 |
| AACCTGCT | -0.00214 ± 0.0044 |
| CCGCGCTC | 0.0673 ± 0.066 |
| CATTTACG | -0.124 ± 0.057 |
| GTTTGTCA | 0.188 ± 0.045 |
| ATGCCTAC | -0.195 ± 0.028 |
| AGAATTAG | -0.00534 ± 0.013 |
| TGAAGCAA | -0.173 ± 0.011 |
| CCTGACTA | -0.00723 ± 0.035 |
| ATAATCTC | -0.0752 ± 0.092 |
| AAAAGCAA | -0.0506 ± 0.1 |
| ATCCCGAC | 0.00396 ± 0.076 |
| ATTGGTAG | -0.026 ± 0.036 |
| GCCGTAGA | -0.288 ± 0.0058 |
| GGTAAGTA | -0.0476 ± 0.043 |
| ACAAGACA | 0.0373 ± 0.048 |
| ACCGATAC | -0.129 ± 0.01 |
| AGGGGCAG | -0.208 ± 0.027 |
| CGTAGTAG | -0.00611 ± 0.019 |
| ATTTCGAG | 0.0333 ± 0.11 |
| ATACGGAG | 0.0541 ± 0.066 |
| AATAGCAA | 0.151 ± 0.019 |
